Results reported in the supplement of paper PMC4967469.
By IC50 is meant the dose at which the fit gives 50% viability; a fit beyond the top or the lowest dose is shown as a bound at that dose. AUC sums up the same curve from the lowest dose to the 256-fold higher top dose; the more sensitive the line, the further below 1. For part of these data: The top dose, if marked as inferred, comes from the curve model; the source does not state it.

Assays:
Experiment in all cases: Viability of human cancer cell lines after 72 h of drug (GDSC screen)
Trametinib = compound: CC(=O)Nc1cccc(-n2c(=O)n(C3CC3)c(=O)c3c(Nc4ccc(I)cc4F)n(C)c(=O)c(C)c32)c1 [Trametinib]; settings: top dose 1 µM
Experimental: (§1)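 Human cancer cell lines in 384-well plates, medium with 10% serum, drug for 72 h over a 256-fold dose range (nine 2-fold or five 4-fold steps up to the top dose). Adherent lines were fixed and stained with the nucleic acid dye Syto60, suspension lines read with resazurin; signal relative to control wells, capped at 0 and 100%. One two-parameter sigmoid per drug and line, fitted in a mixed model over all curves with the slope shared within a line.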

HG-6-64-1 = compound: CCN1CCN(Cc2ccc(NC(=O)c3ccc(C)c(/C=C/c4cnc5[nH]ccc5c4OC)c3)cc2C(F)(F)F)CC1 [HG-6-64-1]; settings: top dose 5.12 µM; top dose inferred
Experimental: as §1

I-BET-762 = compound: CCNC(=O)C[C@@H]1N=C(c2ccc(Cl)cc2)c2cc(OC)ccc2-n2c(C)nnc21 [I-BET-762]; settings: top dose 20 µM; top dose inferred
Experimental: as §1

PF-4708671 = compound: CCc1cncnc1N1CCN(Cc2nc3ccc(C(F)(F)F)cc3[nH]2)CC1 [PF-4708671]; settings: top dose 10 µM; top dose inferred
Experimental: as §1

AV-951 = compound: COc1cc2nccc(Oc3ccc(NC(=O)Nc4cc(C)on4)c(Cl)c3)c2cc1OC [AV-951]; settings: top dose 0.128 µM; top dose inferred
Experimental: as §1

KIN001-244 = compound: O=C(NC(COc1ccc2[nH]c(=O)[nH]c2c1)c1ccccc1)c1cccn(Cc2ccc(F)c(F)c2)c1=O [KIN001-244]; settings: top dose 20 µM; top dose inferred
Experimental: as §1

Row | Cell Line | AUC (Trametinib) | IC50 (Trametinib) | AUC (HG-6-64-1) | IC50 (HG-6-64-1) | AUC (I-BET-762) | IC50 (I-BET-762) | AUC (PF-4708671) | IC50 (PF-4708671) | AUC (AV-951) | IC50 (AV-951) | AUC (KIN001-244) | IC50 (KIN001-244)
1 | H2795 (mesothelioma, adherent) | 0.362 | 0.0261 µM | 0.572 | 0.501 µM | 0.987 | > 20 µM | 0.944 | > 10 µM | 0.985 | > 0.128 µM | 0.824 | 11.6 µM
2 | H2803 (mesothelioma, adherent) | 0.796 | 0.559 µM | 0.636 | 0.812 µM | 0.968 | > 20 µM | 0.896 | > 10 µM | 0.981 | > 0.128 µM | 0.978 | > 20 µM
3 | H2804 (mesothelioma, adherent) | 0.984 | > 1 µM | 0.8 | 2.77 µM | 0.904 | > 20 µM | 0.943 | > 10 µM | 0.985 | > 0.128 µM | 0.931 | > 20 µM
4 | H2818 (mesothelioma, adherent) | 0.877 | > 1 µM | 0.748 | 1.68 µM | 0.965 | > 20 µM | 0.958 | > 10 µM | 0.98 | > 0.128 µM | 0.989 | > 20 µM
5 | H2869 (mesothelioma, adherent) | 0.851 | > 1 µM | 0.754 | 2.1 µM | 0.964 | > 20 µM | 0.976 | > 10 µM | 0.976 | > 0.128 µM | 0.91 | > 20 µM
6 | H3118 (head and neck, adherent) | 0.104 | < 0.00391 µM | 0.688 | 1.14 µM | 0.898 | > 20 µM | 0.953 | > 10 µM | 0.981 | > 0.128 µM | 0.885 | > 20 µM
7 | H3255 (lung adenocarcinoma, adherent) | 0.748 | 0.378 µM | 0.82 | 3.7 µM | 0.98 | > 20 µM | 0.941 | > 10 µM | 0.983 | > 0.128 µM | 0.966 | > 20 µM
8 | HARA (lung squamous cell carcinoma, adherent) | 0.645 | 0.169 µM | 0.79 | 2.7 µM | 0.921 | > 20 µM | 0.911 | > 10 µM | 0.968 | > 0.128 µM | 0.872 | > 20 µM
9 | HCC38 (breast, adherent) | 0.941 | > 1 µM | 0.852 | 4.49 µM | 0.905 | > 20 µM | 0.938 | > 10 µM | 0.977 | > 0.128 µM | 0.893 | > 20 µM
10 | HCC70 (breast, adherent) | 0.826 | 0.593 µM | 0.92 | > 5.12 µM | 0.827 | 12 µM | 0.972 | > 10 µM | 0.986 | > 0.128 µM | 0.828 | 12.1 µM
11 | HCC1395 (breast, adherent) | 0.838 | 0.885 µM | 0.702 | 1.35 µM | 0.972 | > 20 µM | 0.977 | > 10 µM | 0.974 | > 0.128 µM | 0.883 | > 20 µM
